This note sets out measurements from article PMC7819943, “Rice protein-binding microarrays: a tool to detect cis-acting elements near promoter regions in rice”.

This is one part of the list.

This assay has as its target T1, OsWOX13 (Oryza sativa, UniProt Q5QMM3 1-267).
T1 sequence: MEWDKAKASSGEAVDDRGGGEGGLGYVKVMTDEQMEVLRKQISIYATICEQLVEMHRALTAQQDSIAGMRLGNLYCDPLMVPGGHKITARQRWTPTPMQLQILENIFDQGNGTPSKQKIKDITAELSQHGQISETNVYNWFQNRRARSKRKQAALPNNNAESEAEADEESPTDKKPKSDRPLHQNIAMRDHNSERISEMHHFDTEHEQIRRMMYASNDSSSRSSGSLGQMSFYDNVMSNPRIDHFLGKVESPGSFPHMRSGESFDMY
Description: protein-binding microarray (RPBM); PBS, 2% BSA, 51.3 ng/ul salmon testes DNA, 50 uM zinc acetate, 200 nM TF, 25 C, 1 h; high values mean tight binding. The conditions noted are these: protein: recombinant; tags: N-terminal polyhistidine and DsRed monomer fusion (pET32a); label: CyDye5-dUTP incorporated in the synthesized complementary strand; 3' TTTTT single-stranded linker to array surface; dsDNA, one strand shown. In a few lines: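 In PBS with 2% BSA, salmon testes DNA and 50 µM zinc acetate, 200 nM protein was incubated on a custom Agilent array at 25 °C for 1 h and then washed off. The array had been made double-stranded by primer extension with Cy5-dUTP and blocked with 2% BSA. The proteins were transcription factors fused N-terminally to polyhistidine and DsRed, expressed in E. coli BL21-CodonPlus and purified on Ni–NTA. The binding signal is per-feature fluorescence intensity (arbitrary units) from an Axon 4000B scanner.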
In the case of “GATGAATTTAATTTAATTTATTAGTTAGTGAGTCCCGAGGCGGAGTCACCTAGTGCAG”, the binding signal is 43500 fluorescence intensity (a.u.).

For “ATATATTATGTGCACAAATTGAAGAAGAAGCTAACACGATCGGAGTCACCTAGTGCAG”, the binding signal is 3220 fluorescence intensity (a.u.).

Regarding “ATTAATTAAAATCGCGCCCAATTAATCATTTAATCCATCCCGGAGTCACCTAGTGCAG”, the binding signal is 40700 fluorescence intensity (a.u.).

“ATATTATTTATAAATTGTGTGTGCAACTGACTTGTGGGCCCGGAGTCACCTAGTGCAG”: the binding signal is 3490 fluorescence intensity (a.u.).

On to “TTTAATTCTATGAAATTTCAATCCGTGCAAGTTTTGGAAACGGAGTCACCTAGTGCAG”, for which the binding signal is 8150 fluorescence intensity (a.u.).

“ATAATACAAATTGTATGTAACTTTTCAAAGATCCTGTGATCGGAGTCACCTAGTGCAG”: the binding signal was 4880 fluorescence intensity (a.u.).

For “AGCAATTAGGATTAAAAGATTTGTCTCGTAAATTAGTCGCCGGAGTCACCTAGTGCAG”, the binding signal is 11300 fluorescence intensity (a.u.).

In the case of “TAATATCCACTTAATTAATTAACTAAAGATATAAGATATACGGAGTCACCTAGTGCAG”, the binding signal was 8660 fluorescence intensity (a.u.).

Take “TTTTGTATGAACCAATTAGATTGGTCCGTAGTTTACCTGTCGGAGTCACCTAGTGCAG”: the binding signal is 5440 fluorescence intensity (a.u.).

Turning to “CAAATTAGATAATGCAAAGTTGAATGATTGTTCAAAGTCACGGAGTCACCTAGTGCAG”, the binding signal was 21000 fluorescence intensity (a.u.).

As for “ACAGGAAGGTAATTGAATCGTATGTCCAAACGAGGCTTCTCGGAGTCACCTAGTGCAG”, the binding signal was 5880 fluorescence intensity (a.u.).

Take “TGATGATGGATGGAGTAGTGATTTCCAGCGGGTGATCGATCGGAGTCACCTAGTGCAG”: the binding signal is 11300 fluorescence intensity (a.u.).

Consider “ATCTGCGCGGTAAAATCAATAAAACCTTCATTTCACTTAACGGAGTCACCTAGTGCAG”, for which the binding signal was 10200 fluorescence intensity (a.u.).

Regarding “TGTTTAGTTAATCTACTGTTAACTTTAGTATTAGCCGTGGCGGAGTCACCTAGTGCAG”, the binding signal was 4940 fluorescence intensity (a.u.).

For the sequence “CTCATAACACTTTCCTAATTGCCTCATATGCGGCCTTCCCCGGAGTCACCTAGTGCAG”, the binding signal was 7620 fluorescence intensity (a.u.).

For “TCCTTTCATAATTAATTGCGTGGGAAATTATTTATTTAGCCGGAGTCACCTAGTGCAG”, the binding signal is 39400 fluorescence intensity (a.u.).

For “TAAGAAGATGCCATCAATCAAACACACCCATGGTTTCACACGGAGTCACCTAGTGCAG”, the binding signal was 4780 fluorescence intensity (a.u.).

As to “ATAAACAAATTCCAAATTGACTTTTAGGCTGACGCGGAGCCGGAGTCACCTAGTGCAG”, the binding signal is 21000 fluorescence intensity (a.u.).

As to “TTTAACAAGCTAATTATTGACCAATGACGTGGCTGAACAGCGGAGTCACCTAGTGCAG”, the binding signal is 31200 fluorescence intensity (a.u.).

In the case of “CTATTATTGATTGCTCTACGGATGGCATGGATGGAGGTTGCGGAGTCACCTAGTGCAG”, the binding signal is 47400 fluorescence intensity (a.u.).

As for “CTGAATAAATTTAGCTGGTTGTGTGGTGGAGGAGATGTGTCGGAGTCACCTAGTGCAG”, the binding signal is 5770 fluorescence intensity (a.u.).

For “CAAAATGGTTAACGACGTGATTGGCTCTATACAATTTGAACGGAGTCACCTAGTGCAG”, the binding signal was 30000 fluorescence intensity (a.u.).

With “AGCCAAATTAGTACCAAACTTTGACCAACTTTCGCTAGGACGGAGTCACCTAGTGCAG”, the binding signal is 13900 fluorescence intensity (a.u.).

As to “ATATCAAGCCAATCATCCGCTAAAATAATGCCATATTCTTCGGAGTCACCTAGTGCAG”, the binding signal is 5360 fluorescence intensity (a.u.).

Take “TCAACAGATTGATCTCTGAAGCAGTGGCTAATTTCTATTGCGGAGTCACCTAGTGCAG”: the binding signal was 26400 fluorescence intensity (a.u.).

In the case of “AGTTTAATGGTGATAATATGATTTCAAAATCTGACAACCGCGGAGTCACCTAGTGCAG”, the binding signal is 12500 fluorescence intensity (a.u.).

On to “TCCTTATTATATTACCAATCACATATAACCTGAGTTGTTTCGGAGTCACCTAGTGCAG”, for which the binding signal was 20300 fluorescence intensity (a.u.).

Consider “TTATTTATGGAATAGATTAAATCATTATATGTCTATAATCCGGAGTCACCTAGTGCAG”, for which the binding signal was 3770 fluorescence intensity (a.u.).

“TCTGGATTATTAAATTATATCACTTTCTGTTTCTGACACTCGGAGTCACCTAGTGCAG”: the binding signal is 6690 fluorescence intensity (a.u.).

“ATGCTAAGATGTAATTGACATGGTGTTTTAATCGATACATCGGAGTCACCTAGTGCAG”: the binding signal was 17100 fluorescence intensity (a.u.).

As for “TTGTGATTGAGTTCATGCTAAACATGGTCGACATTAGATGCGGAGTCACCTAGTGCAG”, the binding signal is 41900 fluorescence intensity (a.u.).

Take “GTTAAATTTAGGGTTGAAGAAATTAAGATGAAATTCTTTTCGGAGTCACCTAGTGCAG”: the binding signal was 4990 fluorescence intensity (a.u.).

“CTTAACAATGCAGTAATTTGTCCCAAATCATCACCCATCTCGGAGTCACCTAGTGCAG”: the binding signal is 10200 fluorescence intensity (a.u.).

In the case of “TGGTGTTATCAATCAACAGACGAGTTGACGATAATGGTAACGGAGTCACCTAGTGCAG”, the binding signal was 26100 fluorescence intensity (a.u.).

Take “CATGCTATTAATAAACAAACTGATTTAAACTTACATGGTTCGGAGTCACCTAGTGCAG”: the binding signal was 4960 fluorescence intensity (a.u.).

As to “ATAAATTGAACAGAGCAAACAAAGCAGAAGAACTCGACTCCGGAGTCACCTAGTGCAG”, the binding signal was 6360 fluorescence intensity (a.u.).

Take “TTAAATTGCGGATCCTACAAACCGGCCCAGAACAGTTGGGCGGAGTCACCTAGTGCAG”: the binding signal is 8370 fluorescence intensity (a.u.).

Regarding “GTCTTTATTTGATTGATCATCTGGCATCAATCAATCGGCTCGGAGTCACCTAGTGCAG”, the binding signal was 65500 fluorescence intensity (a.u.).

“TAGAGATTTTGTCAGAATTTAATTAAATTATGTGAAATTTCGGAGTCACCTAGTGCAG”: the binding signal is 12500 fluorescence intensity (a.u.).

Take “AATGATTTTATTAAGATTCTGAACAGAGTTGAATAAATGACGGAGTCACCTAGTGCAG”: the binding signal was 5330 fluorescence intensity (a.u.).

As to “ATACATGTCCTGGCATTAATTATCACTCACCTTAGATTATCGGAGTCACCTAGTGCAG”, the binding signal was 3170 fluorescence intensity (a.u.).

As for “CCATCATCAATTCTTCAATCAATCATCCCTCTTCTCTTCTCGGAGTCACCTAGTGCAG”, the binding signal was 20000 fluorescence intensity (a.u.).
